The antibiotic and cytotoxicity screens of Wong et al. (2023)
This is one part of the list.

What was measured:
HSkMC = human skeletal muscle cells; test: cytotoxicity call (relative viability < 0.9); conditions: 10 µM
HepG2 = test: cytotoxicity call (relative viability < 0.9); conditions: 10 µM
S. aureus RN4220 = test: growth inhibition call (relative growth <= 0.2); conditions: 50 µM

SMILES: CCC(C)C(N)C(=O)O (stereo not given)
- cytotoxicity call (HSkMC): inactive
- cytotoxicity call (HepG2): inactive
- growth inhibition call (S. aureus RN4220): inactive

SMILES: COc1ccc(NC(=O)N(C)C[C@@H]2OCc3ccccc3-c3c(n(C)c4ccccc34)C(=O)N([C@@H](C)CO)C[C@@H]2C)cc1
- cytotoxicity call (HSkMC): inactive
- cytotoxicity call (HepG2): inactive
- growth inhibition call (S. aureus RN4220): inactive

SMILES: COc1ccc(S(=O)(=O)Nc2ccc3c(c2)CC(=O)N([C@@H](C)CO)C[C@@H](C)[C@@H](CN(C)S(=O)(=O)c2c(C)noc2C)O3)cc1
- cytotoxicity call (HSkMC): inactive
- cytotoxicity call (HepG2): inactive
- growth inhibition call (S. aureus RN4220): inactive

SMILES: C[C@H](CO)N1C[C@H](C)[C@@H](CN(C)C(=O)CN2CCOCC2)Oc2cc(Br)ccc2S1(=O)=O
- cytotoxicity call (HSkMC): inactive
- cytotoxicity call (HepG2): inactive
- growth inhibition call (S. aureus RN4220): inactive

SMILES: CO[C@H](CN(C)S(=O)(=O)c1cn(C)cn1)[C@H](C)CN(C(=O)Nc1ccc(C(F)(F)F)cc1)[C@H](C)CO
- cytotoxicity call (HSkMC): inactive
- cytotoxicity call (HepG2): inactive
- growth inhibition call (S. aureus RN4220): active

SMILES: Cc1noc(C)c1NC(=O)N(C)C[C@H]1Oc2c(NC(=O)NC(C)C)cccc2C(=O)N([C@@H](C)CO)C[C@@H]1C
- cytotoxicity call (HSkMC): inactive
- cytotoxicity call (HepG2): inactive
- growth inhibition call (S. aureus RN4220): inactive

SMILES: C[C@@H]1CCCCO[C@@H](CN(C)CC2CCCCC2)[C@H](C)CN([C@@H](C)CO)C(=O)c2cc(NC(=O)Cc3ccccc3)ccc2O1
- cytotoxicity call (HSkMC): inactive
- cytotoxicity call (HepG2): inactive
- growth inhibition call (S. aureus RN4220): inactive

SMILES: C[C@@H]1CN([C@H](C)CO)C(=O)c2cc(NS(C)(=O)=O)ccc2O[C@@H]1CN(C)C(=O)Nc1ccc2c(c1)OCO2
- cytotoxicity call (HSkMC): inactive
- cytotoxicity call (HepG2): inactive
- growth inhibition call (S. aureus RN4220): inactive

SMILES: C[C@H]1CN([C@@H](C)CO)C(=O)c2cccc(NS(=O)(=O)c3cccs3)c2O[C@H]1CN(C)S(=O)(=O)c1ccccc1
- cytotoxicity call (HSkMC): inactive
- cytotoxicity call (HepG2): inactive
- growth inhibition call (S. aureus RN4220): inactive

SMILES: COc1ccc(S(=O)(=O)N(C)C[C@@H]2Oc3c(NC(=O)C4CC4)cccc3C(=O)N([C@H](C)CO)C[C@H]2C)cc1
- cytotoxicity call (HSkMC): inactive
- cytotoxicity call (HepG2): inactive
- growth inhibition call (S. aureus RN4220): inactive
